Reference: PubChem BioAssay AID1963576 (National Center for Advancing Translational Sciences (NCATS), 2024)
The whole screen tested about 46,000 compounds, of which about 60 (0.1%) were called active. Not shown: some 3% with an inconclusive outcome. Calls follow the shape of the dose curve; as a rule, active = well fitted inhibition curve with a large enough effect; inconclusive = small, poorly fitted or top-dose-only effect; inactive = no such curve, though single readings can be large or run the other way. The list shows a part of the results.

Assay: Primary qHTS assay for Inhibitors of ovarian cancer metastasis using an organotypic tumor microenvironment (TME) model. Also: nearly all actives have a fitted effect of over 65% in size.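 As to activity change, negative = inhibition: plate controls were DMSO wells for no effect and tomatine positive control wells for full effect.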
Conditions: SKOV3ip1-GFP adhesion/invasion on 3D omental model, fluorescence; series mostly up to 45.8 µM; activity change, negative = inhibition: at the top concentration
Summary of the method: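 Primary human omental fibroblast/mesothelial 3D culture pre-formed 48 h. SKOV3ip1-GFP cells added with compounds (0.36-46 umol/L), incubated 2 h RT/16 h 37 C, fixed; GFP cells quantified at 488/509 nm.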

Activity change, negative = inhibition, inactive:
COc1ccc(NC(=O)Cn2nnc(C(=O)NCc3cccs3)c2N)cc1 -3.03%
Cc1ccc(-c2csc(-c3nc(-c4ccc(Br)s4)cs3)n2)cc1 -14.6%
CCN(CC)CCNC(=O)Cn1ncc2c3ccccc3n(Cc3ccc(Cl)cc3)c2c1=O -10.2%
CCc1cccc(C)c1NC(=O)c1cc(S(=O)(=O)N(Cc2ccc(C(=O)OC)cc2)Cc2ccc(OC)c(OC)c2)ccc1F -8.85%
CCC(CC)C(=O)Nc1ccc2nc(SCC(=O)N3CCCC3)sc2c1 -10.4%
COc1ccc(NC(=O)CN2C(=O)CC(c3ccc(C)c(C)c3)=Nc3ccccc32)cc1OC 4.71%
COc1ccc(Cc2nc3ccc(C(=O)NCc4ccccc4C)cc3o2)cc1 9.89%
COc1ccc(NC(=O)[C@H]2O[C@@H]3OC(C)(C)O[C@@H]3[C@H]3OC(C)(C)O[C@H]32)c(OC)c1 7.2%
CCOC(=O)C1CCCN(c2nc3c(S(=O)(=O)c4ccc(CC)cc4)nnn3c3ccsc23)C1 (configuration not stated) -17.4%
Cc1c(C(=O)NCc2ccc(F)cc2)oc2ccc(S(=O)(=O)N3CCCCC3)cc12 5.55%
CN(C)c1ccc(/C=C/c2nc(-c3ccccc3O)n(-c3ccccc3)n2)cc1 2.62%
Cc1ccc2nc(-c3cccs3)c(Nc3c(C)cccc3C)n2c1 -5.15%
CC(C)CCNC(=O)CN1C(=O)CSc2ccc(S(=O)(=O)N3CCC(C)CC3)cc21 -7.79%
C=C1C(=CC=C2CCC[C@]3(C)[C@@H]([C@H](C)C=C[C@H](C)C(C)C)CC[C@@H]23)C[C@@H](O)C[C@@H]1O -20.6%
CCc1cccc(NC(=O)CCc2nc3cccnc3n2Cc2ccc(OC)cc2)c1 4.17%
CCOC(=O)Cc1ccc(NC(=O)Nc2c[nH]c(=O)[nH]c2=O)cc1 -17.2%
Cn1c(=O)[nH]c(=O)c2c1nc(N1CCOCC1)n2Cc1ccccc1 -0.588%
O=C(NCCS(=O)(=O)N1CCN(c2ccc(F)cc2)CC1)C(c1ccccc1)c1ccccc1 -13.9%
CC(=O)c1cccc(NC(=O)CSc2nnc3ccc(-c4ccc(Br)cc4)nn23)c1 -1.23%
CCOC(=O)C(CC)n1nnc2sc(-c3ccccc3)cc2c1=O (configuration not stated) 1.27%
Cn1c2ccccc2c2cnn(CC(=O)NCCCN3CCCCC3)c(=O)c21 10.3%
CCc1ccccc1NC(=O)CSc1nncn2c1cc1oc(C)cc12 4.99%
Fc1ccc(C(c2nnc(-c3ccccc3)o2)N2CCN(c3cccc(Cl)c3)CC2)cc1 (configuration not stated) -0.209%
Cc1ccc(NC(=O)Cn2c(=O)n(Cc3ccccc3)c(=O)c3sc4ccccc4c32)cc1 -3.53%
Cc1ccc(-n2c(=O)c3sc4ccccc4c3n(CC(=O)NC3CCCC3)c2=O)cc1C -0.308%
Cc1ccc(CNC(=O)CSc2nc3c(sc4ccccc43)c(=O)n2CCCOC(C)C)cc1 -0.757%
Cc1ccc2oc(=O)c3cnn(CC(=O)N4CCN(c5ccc(F)cc5)CC4)c3c2c1 -0.176%
Cc1ccc(Nc2c(-c3c[nH]c4ccccc34)nc3ccccn23)cc1 3.88%
CCOc1ccc(CNC(=O)c2ccc3c(c2)c(C)c(C)n3Cc2ccccc2)cc1OC -2.59%
CCOc1ccc(NC(=O)c2c(Nc3ccccc3C)sc(C(=O)c3ccccc3)c2N)cc1 -5.41%
O=C(CN1C(=O)C2(SCC(=O)N2c2cccc(Cl)c2)c2ccccc21)NCCc1ccccc1 (configuration not stated) 2.99%
CCN(CC)S(=O)(=O)c1ccc(NC(=O)CN(c2ccccc2)S(=O)(=O)N(C)C)cc1 6.84%
CCOc1ccc(NC(=O)C(Cc2ccccc2)NS(=O)(=O)c2ccc3c(c2)oc(=O)n3C)cc1 (configuration not stated) -8.39%
COc1ccccc1C(=O)Nc1ccc2nc(SCC(=O)N(C)c3ccccc3)sc2c1 1.91%
CCS(=O)(=O)c1ncc(N(Cc2ccccc2)Cc2ccco2)c(C(=O)Nc2cccc(Cl)c2C)n1 -7.22%
Cc1c(Cl)cccc1-c1ccc(CNCCSc2nnnn2-c2ccccc2)o1 -25.1%
Cc1ccc(C)c(Cn2c3ccccc3c3cnn(CC(=O)NC(C)CCc4ccccc4)c(=O)c32)c1 (configuration not stated) -10.8%
COc1ccc(CCNC(=O)c2ccc3c(c2)N(Cc2ccccc2)C(=O)c2ccccc2S3=O)cc1OC (configuration not stated) -29.3%
Cc1ccc(-n2ncc(C(=O)N3CCN(c4cc(Cl)ccc4C)CC3)c2C2CCN(C(=O)OC(C)(C)C)CC2)cc1 8.51%
COc1cccc(NC(=O)CN2C(=O)c3cccc4cccc2c34)c1 -1.04%
Cc1cccc(CNC(=O)Cn2c(-c3cccs3)cc3ccccc32)c1 -12.7%
Cc1cccc(OCC(=O)Nc2ccccc2C(=O)OCc2cc(=O)n3ccsc3n2)c1 0.238%
COc1ccc(NC(=O)c2c(C)oc3ccc(O)c(CN4CCC(C)CC4)c23)cc1Cl -1.88%
COc1ccc(CNc2ncnc3c2nc2n3CCCC2)cc1 -8.78%
COc1ccc(CCn2c3c(c(=O)[nH]c2=O)C(NC(=O)c2ccc(Cl)cc2)(C(F)(F)F)C(=O)N3)cc1OC (configuration not stated) 10.4%
COC(=O)CSc1ncc2c(n1)-c1ccccc1N(Cc1ccc(Cl)cc1)S2(=O)=O 0.763%
CCCN(c1c(C)n(C)n(-c2ccccc2)c1=O)S(=O)(=O)c1ccc(C)cc1 2.3%
CCc1ccc(-n2nnc(-c3nc(-c4cccs4)no3)c2N)cc1 -4.23%
CC(C)OC(=O)c1ccc(Cn2nnc3sc4c(c3c2=O)CCCC4)cc1 -0.841%
COc1ccc2c(c1)c1c(c(=O)n(-c3ccccc3C)c(=O)n1Cc1cccc(C(F)(F)F)c1)n2C 5.97%
CCN(c1cccc(C)c1)S(=O)(=O)c1cc(Br)cc2c1N(C(C)=O)C(C)C2 (configuration not stated) -0.615%
CC(NC(=O)c1ccc2c(c1)N(Cc1ccc(Cl)cc1)C(=O)CS2)c1ccccc1 (configuration not stated) 37.7%
Cc1cn2c(-c3cn[nH]c3)cnc2c(Nc2ccc(C(=O)N3CCNCC3)cc2F)n1 -11.9%
CC(=O)Nc1ccc(S(=O)(=O)NC2(C(F)(F)F)C(=O)Nc3c2c(=O)[nH]c(=O)n3-c2cccc(Cl)c2)cc1 (configuration not stated) -0.591%
CCc1nc2ccc(C(=O)N3CCN(c4cc(Cl)ccc4C)CC3)cc2nc1CC -8.04%
Cc1ccc(CSc2nc3cccnc3n2Cc2ccc(C(=O)NCc3ccco3)cc2)cc1 -13.7%
Oc1ccc(Cl)cc1C1=Nc2ccccc2N=C(c2ccccc2)C1 -6.58%
Cc1cccc(-c2nc(CN3CCCC(C(=O)N4CCN(c5cc(Cl)ccc5C)CC4)C3)c(C)o2)c1 (configuration not stated) -7.52%
O=C(c1ccc(F)cc1)c1cn(Cc2ccccc2F)c2cc3c(cc2c1=O)OCCO3 -3.19%
Cc1ccc(-c2nc3c(c(SCc4ccc(Br)cc4)n2)Cc2c(CO)cnc(C)c2O3)cc1 -23.1%
Cc1ccc2c(=O)cc(C(=O)Nc3ccc(S(=O)(=O)N(C)c4ccccc4)cc3)oc2c1C 2.22%
COc1ccc(CCNC(=O)CCc2c(C)c3cc4c(C)c(C)oc4cc3oc2=O)cc1OC -4%
O=C(Cn1ncn2c(cc3sccc32)c1=O)NCCc1ccccc1 8.74%
COc1ccccc1-c1nc2n(n1)C(c1ccccc1Cl)C(C(=O)Nc1cccnc1)=C(C)N2 (configuration not stated) 13.8%
CCOc1ccccc1NC(=O)CSc1nnc2[nH]c(=O)cc(C)n12 5.31%
CCCCn1cc(S(=O)(=O)c2ccc(C)cc2)c(=O)c2cc(F)c(N3CCCCC3)cc21 6.81%
CC(C)(C)OC(=O)N1CCC(c2c(C(=O)NCc3ccccc3)cnn2-c2cccc(F)c2)CC1 4.78%
CCOC(=O)c1cnc2cc(C(F)(F)F)ccc2c1Nc1cc(C)ccc1OC 1.56%
CCOC(=O)c1ccc(NC2=CC(c3ccc(OCC)cc3)N(c3ccc(C(=O)OCC)cc3)C2=O)cc1 (configuration not stated) -7.13%
Cc1ccc(-c2nc(CCNC(=O)c3ccc(C)c(C)c3)cs2)cc1 -2.62%
COc1ccc(C)cc1NC(=O)c1ccc(NS(=O)(=O)c2c(C)noc2C)cc1 4%
CCC(C(=O)Nc1cccc(Cl)c1C)n1nc(C)c2sc3ccccc3c2c1=O (configuration not stated) -3.17%
COc1ccc(-c2noc(CN(C)S(=O)(=O)c3c(C)cc(C)cc3C)n2)cc1OC -8.48%
CC(=O)N1c2ccccc2C(=O)C1N1CCN(c2ccccc2F)CC1 (configuration not stated) 6.83%
Cc1ccc(S(=O)(=O)c2c(O)cc(C)c(NS(=O)(=O)c3ccc(Br)cc3)c2C)cc1 12.7%
Cc1oc(-c2ccc(Cl)cc2)nc1CN1CCCC(C(=O)NCCc2ccc(Cl)cc2)C1 (configuration not stated) 4.08%
O=C(CSc1nnc(-c2ccccc2Cl)o1)N1CCCc2ccccc21 -28.2%
COc1ccc(NC(=O)c2c(NCc3cccs3)sc3c2CCC(C)C3)c(OC)c1 (configuration not stated) -1.86%
CC(=O)N1CCc2cc(Br)cc(S(=O)(=O)CCC(=O)N3CCN(c4ccc(F)cc4)CC3)c21 1.54%

outcome, inactive:
Cc1ccc2c(c1)c1c(c(=O)n(-c3cccc(Cl)c3)c(=O)n1CC(=O)NCC1CCCO1)n2C (configuration not stated)
Cc1ccccc1OCC(=O)Nc1ccc(-c2nc3ccccc3o2)cc1
CCOc1ccc(NC(=O)CSc2cn(CCNC(=O)c3ccccc3F)c3ccccc23)cc1
COc1ccc(CN2C(=O)C(NC(=O)c3cccc(C)c3)(C(F)(F)F)N=C2c2ccccc2)cc1 (configuration not stated)
CC(C)Oc1ccccc1-c1nc(SCC(=O)c2ccc(F)cc2)n[nH]1
CC1CCN(C(=O)CSc2n[nH]c(-c3ccc(F)cc3)n2)CC1
CCC(=O)N1CCc2cc(CNS(=O)(=O)c3cc(OC)ccc3OC)ccc21
CCOC(=O)c1cnc2cc(C(F)(F)F)ccc2c1Nc1ccc(F)cc1F
Cc1ccc(S(=O)(=O)NCC2CCC(C(=O)NCCc3ccccc3)CC2)cc1 (configuration not stated)
CSc1cccc(NC(=O)c2cnn(-c3ccc(F)cc3)c2-n2cccc2)c1
O=C(CSc1nc2c([nH]c3ccccc32)c(=O)n1-c1ccc(Cl)cc1)N1CCc2ccccc21
O=C(CSc1nc2ccccc2nc1Cc1ccc(Cl)cc1)Nc1ccc2c(c1)OCO2
COCCCNC(=O)C1CCN(Cc2cc3ccccc3n2Cc2ccccc2C)CC1
